Measured values as given in article PMC3526545, “New perspectives for natural antimicrobial peptides: application as antinflammatory drugs in a murine model” (BMC Immunology, 2012).
Read-outs that look alike come from different tables or passages of the source.

System: Staphylococcus epidermidis strains
Experiment: Antibiotic susceptibility, disk diffusion method on Mueller-Hinton agar
Assay type: cell-based
[1] = strain 2/2, disk diffusion, Mueller-Hinton agar, NCCLS guidelines
[2] = strain 3/28, disk diffusion, Mueller-Hinton agar, NCCLS guidelines
[3] = strain 5/6, disk diffusion, Mueller-Hinton agar, NCCLS guidelines
[4] = strain 5/8, disk diffusion, Mueller-Hinton agar, NCCLS guidelines
[5] = strain 5/25, disk diffusion, Mueller-Hinton agar, NCCLS guidelines
[6] = strain 9/1, disk diffusion, Mueller-Hinton agar, NCCLS guidelines
[7] = strain 10/28, disk diffusion, Mueller-Hinton agar, NCCLS guidelines
[8] = strain 12/14, disk diffusion, Mueller-Hinton agar, NCCLS guidelines
[9] = strain 12/26, disk diffusion, Mueller-Hinton agar, NCCLS guidelines
[10] = strain SE, disk diffusion, Mueller-Hinton agar, NCCLS guidelines, disk content as in antibiotic code

Row | Compound | antibiotic susceptibility test [1] | antibiotic susceptibility test [2] | antibiotic susceptibility test [3] | antibiotic susceptibility test [4] | antibiotic susceptibility test [5] | antibiotic susceptibility test [6] | antibiotic susceptibility test [7] | antibiotic susceptibility test [8] | antibiotic susceptibility test [9] | antibiotic susceptibility test [10] | antibiotic susceptibility test
1 | CO[C@H]1/C=C/O[C@@]2(C)Oc3c(C)c(O)c4c(O)c(c(/C=N/N5CCN(C)CC5)c(O)c4c3C2=O)NC(=O)/C(C)=C\C=C\[C@H](C)[C@H](O)[C@@H](C)[C@@H](O)[C@@H](C)[C@H](OC(C)=O)[C@@H]1C [RF30, rifampicin] | I | S | S | S | S | S | S | R | S | R | –
2 | CNC(C)C1CCC(N)C(OC2C(N)CC(N)C(OC3OCC(C)(O)C(NC)C3O)C2O)O1 (centres unmarked) [Gentamicin, gentamicin] | I | R | I | R | I | I | R | R | R | R | –
3 | CC(=O)O[C@H]1C[C@@]2(C)[C@@H](C[C@@H](O)[C@H]3[C@@]4(C)CC[C@@H](O)[C@@H](C)[C@@H]4CC[C@@]32C)/C1=C(\CCC=C(C)C)C(=O)O [FD10, fusidic acid] | S | R | I | S | S | S | S | S | S | R | –
4 | CC1(C)S[C@@H]2[C@H](NC(=O)C(C(=O)O)c3ccccc3)C(=O)N2[C@H]1C(=O)O (some centres unmarked) [CB100, carbenicillin] | R | R | I | I | R | I | R | I | R | R | –
5 | spiramycin [SP100] | R | S | I | S | I | I | I | I | I | R | –
6 | CCN1CCN(C(=O)N[C@@H](C(=O)N[C@@H]2C(=O)N3[C@@H]2SC(C)(C)[C@@H]3C(=O)O)c2ccccc2)C(=O)C1=O [PIP100, piperacillin] | R | S | R | R | R | R | R | R | R | R | –
7 | C[C@H]1[C@H](NC(=O)/C(=N\OC(C)(C)C(=O)O)c2csc(N)n2)C(=O)N1S(=O)(=O)O [ATM30, aztreonam] | R | R | R | R | R | R | R | R | R | R | –
8 | CC1(C)S[C@@H]2[C@H](NC(=O)[C@H](N)c3ccc(O)cc3)C(=O)N2[C@H]1C(=O)O [AMX25, amoxicillin] | R | S | I | I | R | R | R | R | R | R | –
9 | Cc1ncc([N+](=O)[O-])n1CCO [M80, metronidazole] | R | R | R | R | R | R | R | R | R | R | –
10 | CN(C)[C@@H]1C(O)=C(C(N)=O)C(=O)[C@@]2(O)C(O)=C3C(=O)c4c(O)cccc4[C@@](C)(O)[C@H]3[C@H](O)[C@@H]12 [T30, oxytetracycline] | S | S | S | R | S | S | R | R | S | I | –
11 | O=C1CN(/N=C/c2ccc([N+](=O)[O-])o2)C(=O)N1 [FM300, nitrofurantoin] | S | S | S | S | S | S | S | S | S | R | –
12 | CO[C@@]1(NC(=O)Cc2cccs2)C(=O)N2C(C(=O)O)=C(COC(N)=O)CS[C@@H]21 [FOX30, cefoxidin] | R | S | I | I | S | S | S | S | S | I | –
13 | bacitracin [B2] | – | – | – | – | – | – | – | – | – | – | R
14 | O=C(Cc1cccs1)N[C@@H]1C(=O)N2C(C(=O)[O-])=C(C[n+]3ccccc3)CS[C@H]12 [CD30, cephaloridine] | R | S | R | R | R | R | R | R | R | R | –
15 | CC1(C)S[C@@H]2[C@H](NC(=O)Cc3ccccc3)C(=O)N2[C@H]1C(=O)O [P10, penicillin-G] | R | R | R | R | R | R | R | R | R | R | –
16 | CN[C@H](CC(C)C)C(=O)N[C@H]1C(=O)N[C@@H](CC(N)=O)C(=O)N[C@H]2C(=O)N[C@H]3C(=O)N[C@H](C(=O)N[C@H](C(=O)O)c4cc(O)cc(O)c4-c4cc3ccc4O)[C@H](O)c3ccc(c(Cl)c3)Oc3cc2cc(c3O[C@@H]2O[C@H](CO)[C@@H](O)[C@H](O)[C@H]2O[C@H]2C[C@](C)(N)[C@H](O)[C@H](C)O2)Oc2ccc(cc2Cl)[C@H]1O [VA30, vancomycin] | I | I | I | S | S | I | I | I | I | R | –
17 | CCC[C@@H]1C[C@@H](C(=O)N[C@@H]([C@H]2O[C@H](SC)[C@H](O)[C@@H](O)[C@H]2O)[C@@H](C)O)N(C)C1 [MY2, lincomycin] | R | R | I | R | R | S | S | S | S | R | –
18 | CC(C)(O/N=C(\C(=O)N[C@@H]1C(=O)N2C(C(=O)[O-])=C(C[n+]3ccccc3)CS[C@H]12)c1csc(N)n1)C(=O)O [CAZ30, ceftazidime] | I | I | S | I | I | I | I | S | I | S | –
19 | C[C@@H](O)[C@H]1C(=O)N2C(C(=O)O)=C(SCCN=CN)C[C@H]12 [IPM10, imipenem] | S | S | S | S | S | S | S | S | S | S | –
20 | Cc1onc(-c2ccccc2Cl)c1C(=O)N[C@@H]1C(=O)N2[C@@H]1SC(C)(C)[C@@H]2C(=O)O [CX1, cloxacillin] | R | R | R | R | R | R | R | R | R | R | –
